{"source": "the supplement of paper PMC8728848", "binders": {"B1": {"name": "PX9961X-pdi-531-24-531 (Parabacteroides distasonis) (protein)", "chain": "DLTEEIHSSVIAENYYNNAGEVMAAMMRPWGHFCGTMQVAQSPWSCNELSSDCAAWPQKGRHGYDNGDWIRLHRHQWIPTDGQVVDAWKKLFEGIGYANNFLTDTENIDFEALQVPMSKAQAQAEMRVYRAYCYWYVMDMFGTAPICEKIGEINPSSKSRAELFAWIEKELNESIPSLSESKTETYGRVSKWGAYALLARLYLNAEIYTGQARWDDCIAACDELAKGGFALDKKWNDTFRADNDKRSTEIIWSIVYDEVYAKGMGWYQRWLHYAHQTGWDLQSGPWNGLVTQPTFYDSFADNDLRKIEGFLIGKQYPRKVDENGNYYYDTTAEPLKGSEEYNGQDLVFVNYIKSMTEGEENSGARSIKYEIQPGTTGDMNNDWVMFRYSEVIYNKAEALMRKNGGKATQEVVDMINSVRQRSFKAEDWEKAKYTTATLTMDEFLAEKGREFAFEGIRRTDLVRFNKFVTTSWWDKTASNEPKRNIFPIPQRQLDANANLSPNEANSLF"}}, "experiment_in_all_cases": "glycan array binding signal (z-score within array); higher = stronger binding", "details_in_all_cases": "glycan notation: IUPAC condensed, linker removed", "key": {"Fuc(a1-2)Gal": {"target": "Fuc(a1-2)Gal", "how_it_was_run": "(§1)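 Glycan array binding is given as a within-array Z-score, which can be read as non-binding when negative. The arrays, 3228 of them, came from the Consortium for Functional Glycomics database and were retained only where the protein sequence was available. Z-scores were averaged across arrays of the same protein sequence at different concentrations or buffers and across linkers.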"}, "Fuc(a1-2)Gal(b1-3)GalNAc": {"target": "Fuc(a1-2)Gal(b1-3)GalNAc", "how_it_was_run": "as §1"}, "[1]": {"target": "Fuc(a1-2)Gal(b1-3)GalNAc(a1-3)[Fuc(a1-2)]Gal(b1-4)Glc", "how_it_was_run": "as §1"}, "[2]": {"target": "Fuc(a1-2)Gal(b1-3)GalNAc(a1-3)[Fuc(a1-2)]Gal(b1-4)GlcNAc", "how_it_was_run": "as §1"}, "[3]": {"target": "Fuc(a1-2)Gal(b1-3)GalNAc(b1-3)Gal", "how_it_was_run": "as §1"}, "[4]": {"target": "Fuc(a1-2)Gal(b1-3)GalNAc(b1-3)Gal(a1-4)Gal(b1-4)Glc", "how_it_was_run": "as §1"}, "[5]": {"target": "Fuc(a1-2)Gal(b1-3)GalNAc(b1-4)[Neu5Ac(a2-3)]Gal(b1-4)Glc", "how_it_was_run": "as §1"}, "Fuc(a1-2)Gal(b1-3)GlcNAc": {"target": "Fuc(a1-2)Gal(b1-3)GlcNAc", "how_it_was_run": "as §1"}, "[6]": {"target": "Fuc(a1-2)Gal(b1-3)GlcNAc(b1-2)Man(a1-3)[Fuc(a1-2)Gal(b1-3)GlcNAc(b1-2)Man(a1-6)]Man(b1-4)GlcNAc(b1-4)GlcNAc", "how_it_was_run": "as §1"}, "[7]": {"target": "Fuc(a1-2)Gal(b1-3)GlcNAc(b1-2)Man(a1-3)[Fuc(a1-2)Gal(b1-3)GlcNAc(b1-2)Man(a1-6)]Man(b1-4)GlcNAc(b1-4)[Fuc(a1-6)]GlcNAc", "how_it_was_run": "as §1"}, "[8]": {"target": "Fuc(a1-2)Gal(b1-3)GlcNAc(b1-3)Gal(b1-4)Glc", "how_it_was_run": "as §1"}, "[9]": {"target": "Fuc(a1-2)Gal(b1-3)GlcNAc(b1-3)GalNAc", "how_it_was_run": "as §1"}, "[10]": {"target": "Fuc(a1-2)Gal(b1-3)GlcNAc(b1-3)[Fuc(a1-2)Gal(b1-3)GlcNAc(b1-6)]GalNAc", "how_it_was_run": "as §1"}, "[11]": {"target": "Fuc(a1-2)Gal(b1-3)GlcNAc(b1-3)[Gal(b1-4)GlcNAc(b1-6)]Gal(b1-4)Glc", "how_it_was_run": "as §1"}, "[12]": {"target": "Fuc(a1-2)Gal(b1-3)GlcNAc(b1-3)[Neu5Ac(a2-6)Gal(b1-4)GlcNAc(b1-6)]Gal(b1-4)Glc", "how_it_was_run": "as §1"}, "[13]": {"target": "Fuc(a1-2)Gal(b1-3)GlcNAc6S", "how_it_was_run": "as §1"}, "[14]": {"target": "Fuc(a1-2)Gal(b1-3)[Fuc(a1-4)]GlcNAc", "how_it_was_run": "as §1"}, "[15]": {"target": "Fuc(a1-2)Gal(b1-3)[Fuc(a1-4)]GlcNAc(b1-2)Man(a1-3)[Fuc(a1-2)Gal(b1-3)[Fuc(a1-4)]GlcNAc(b1-2)Man(a1-3)]Man(b1-4)GlcNAc(b1-4)GlcNAc", "how_it_was_run": "as §1"}, "[16]": {"target": "Fuc(a1-2)Gal(b1-3)[Fuc(a1-4)]GlcNAc(b1-2)Man(a1-3)[Fuc(a1-2)Gal(b1-3)[Fuc(a1-4)]GlcNAc(b1-2)Man(a1-6)]Man(b1-4)GlcNAc(b1-4)[Fuc(a1-6)]GlcNAc(b1-4)[Fuc(a1-6)]GlcNAc", "how_it_was_run": "as §1"}, "[17]": {"target": "Fuc(a1-2)Gal(b1-3)[Fuc(a1-4)]GlcNAc(b1-3)[Fuc(a1-3)[Gal(b1-4)]GlcNAc(b1-6)]Gal(b1-4)Glc", "how_it_was_run": "as §1"}, "[18]": {"target": "Fuc(a1-2)Gal(b1-3)[Fuc(a1-4)]GlcNAc(b1-3)[Gal(b1-4)GlcNAc(b1-6)]Gal(b1-4)Glc", "how_it_was_run": "as §1"}, "Fuc(a1-2)Gal(b1-4)Glc": {"target": "Fuc(a1-2)Gal(b1-4)Glc", "how_it_was_run": "as §1"}, "Fuc(a1-2)Gal(b1-4)Glc6S": {"target": "Fuc(a1-2)Gal(b1-4)Glc6S", "how_it_was_run": "as §1"}, "Fuc(a1-2)Gal(b1-4)GlcNAc": {"target": "Fuc(a1-2)Gal(b1-4)GlcNAc", "how_it_was_run": "as §1"}, "[19]": {"target": "Fuc(a1-2)Gal(b1-4)GlcNAc(b1-2)Man", "how_it_was_run": "as §1"}, "[20]": {"target": "Fuc(a1-2)Gal(b1-4)GlcNAc(b1-2)Man(a1-3)[Fuc(a1-2)Gal(b1-4)GlcNAc(b1-2)Man(a1-6)]Man(b1-4)GlcNAc(b1-4)GlcNAc", "how_it_was_run": "as §1"}, "[21]": {"target": "Fuc(a1-2)Gal(b1-4)GlcNAc(b1-2)Man(a1-3)[Fuc(a1-2)Gal(b1-4)GlcNAc(b1-2)Man(a1-6)]Man(b1-4)GlcNAc(b1-4)[Fuc(a1-6)]GlcNAc", "how_it_was_run": "as §1"}, "[22]": {"target": "Fuc(a1-2)Gal(b1-4)GlcNAc(b1-2)[Fuc(a1-2)Gal(b1-4)GlcNAc(b1-4)]Man(a1-3)[Fuc(a1-2)Gal(b1-4)GlcNAc(b1-2)Man(a1-6)]Man(b1-4)GlcNAc(b1-4)GlcNAc", "how_it_was_run": "as §1"}, "[23]": {"target": "Fuc(a1-2)Gal(b1-4)GlcNAc(b1-3)Gal(b1-4)GlcNAc", "how_it_was_run": "as §1"}, "[24]": {"target": "Fuc(a1-2)Gal(b1-4)GlcNAc(b1-3)Gal(b1-4)GlcNAc(b1-2)Man(a1-3)[Fuc(a1-2)Gal(b1-4)GlcNAc(b1-3)Gal(b1-4)GlcNAc(b1-2)Man(a1-6)]Man(b1-4)GlcNAc(b1-4)GlcNAc", "how_it_was_run": "as §1"}}, "note": "The list shows a part of the results.", "data": [{"binder": "B1", "values": [{"measurement": "glycan array binding signal (z-score)", "setting": "Fuc(a1-2)Gal", "result": -0.236}, {"measurement": "glycan array binding signal (z-score)", "setting": "Fuc(a1-2)Gal(b1-3)GalNAc", "result": -0.286}, {"measurement": "glycan array binding signal (z-score)", "setting": "[1]", "result": -0.204}, {"measurement": "glycan array binding signal (z-score)", "setting": "[2]", "result": 0.763}, {"measurement": "glycan array binding signal (z-score)", "setting": "[3]", "result": 0.258}, {"measurement": "glycan array binding signal (z-score)", "setting": "[4]", "result": -0.522}, {"measurement": "glycan array binding signal (z-score)", "setting": "[5]", "result": -0.435}, {"measurement": "glycan array binding signal (z-score)", "setting": "Fuc(a1-2)Gal(b1-3)GlcNAc", "result": -0.496}, {"measurement": "glycan array binding signal (z-score)", "setting": "[6]", "result": 0.611}, {"measurement": "glycan array binding signal (z-score)", "setting": "[7]", "result": -0.139}, {"measurement": "glycan array binding signal (z-score)", "setting": "[8]", "result": 0.003}, {"measurement": "glycan array binding signal (z-score)", "setting": "[9]", "result": -0.17}, {"measurement": "glycan array binding signal (z-score)", "setting": "[10]", "result": 0.427}, {"measurement": "glycan array binding signal (z-score)", "setting": "[11]", "result": -0.824}, {"measurement": "glycan array binding signal (z-score)", "setting": "[12]", "result": -0.479}, {"measurement": "glycan array binding signal (z-score)", "setting": "[13]", "result": -0.443}, {"measurement": "glycan array binding signal (z-score)", "setting": "[14]", "result": -0.944}, {"measurement": "glycan array binding signal (z-score)", "setting": "[15]", "result": 0.026}, {"measurement": "glycan array binding signal (z-score)", "setting": "[16]", "result": -0.23}, {"measurement": "glycan array binding signal (z-score)", "setting": "[17]", "result": -0.666}, {"measurement": "glycan array binding signal (z-score)", "setting": "[18]", "result": -0.572}, {"measurement": "glycan array binding signal (z-score)", "setting": "Fuc(a1-2)Gal(b1-4)Glc", "result": 0.128}, {"measurement": "glycan array binding signal (z-score)", "setting": "Fuc(a1-2)Gal(b1-4)Glc6S", "result": -0.94}, {"measurement": "glycan array binding signal (z-score)", "setting": "Fuc(a1-2)Gal(b1-4)GlcNAc", "result": -0.444}, {"measurement": "glycan array binding signal (z-score)", "setting": "[19]", "result": 0.292}, {"measurement": "glycan array binding signal (z-score)", "setting": "[20]", "result": 1.28}, {"measurement": "glycan array binding signal (z-score)", "setting": "[21]", "result": -0.118}, {"measurement": "glycan array binding signal (z-score)", "setting": "[22]", "result": -0.004}, {"measurement": "glycan array binding signal (z-score)", "setting": "[23]", "result": 0.123}, {"measurement": "glycan array binding signal (z-score)", "setting": "[24]", "result": 1.07}]}]}
